Experimental findings from publication PMC6919601, “Identification of Plasmodium dipeptidyl aminopeptidase allosteric inhibitors by high throughput screening” (PLoS ONE, 2019) are described below.

Hit rate of the full screen: of about 110,000 compounds, about 230 (0.21%) showed an effect of 50% or more. The list shows a part of the results.
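Note: 30 min substrate incubation versus DMSO and 10 µM JCP410 controls.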

In the assay the target is DPAP1 (Plasmodium falciparum, UniProt Q8IIJ9). Kind of assay: primary screen, percent inhibition; read by cleavage of a fluorogenic dipeptide substrate; higher = more effect of the substance. Also on record: species or system P. falciparum D10 trophozoite lysates; single well.
DPAP1, sequence (Q8IIJ9 whole entry, looked up): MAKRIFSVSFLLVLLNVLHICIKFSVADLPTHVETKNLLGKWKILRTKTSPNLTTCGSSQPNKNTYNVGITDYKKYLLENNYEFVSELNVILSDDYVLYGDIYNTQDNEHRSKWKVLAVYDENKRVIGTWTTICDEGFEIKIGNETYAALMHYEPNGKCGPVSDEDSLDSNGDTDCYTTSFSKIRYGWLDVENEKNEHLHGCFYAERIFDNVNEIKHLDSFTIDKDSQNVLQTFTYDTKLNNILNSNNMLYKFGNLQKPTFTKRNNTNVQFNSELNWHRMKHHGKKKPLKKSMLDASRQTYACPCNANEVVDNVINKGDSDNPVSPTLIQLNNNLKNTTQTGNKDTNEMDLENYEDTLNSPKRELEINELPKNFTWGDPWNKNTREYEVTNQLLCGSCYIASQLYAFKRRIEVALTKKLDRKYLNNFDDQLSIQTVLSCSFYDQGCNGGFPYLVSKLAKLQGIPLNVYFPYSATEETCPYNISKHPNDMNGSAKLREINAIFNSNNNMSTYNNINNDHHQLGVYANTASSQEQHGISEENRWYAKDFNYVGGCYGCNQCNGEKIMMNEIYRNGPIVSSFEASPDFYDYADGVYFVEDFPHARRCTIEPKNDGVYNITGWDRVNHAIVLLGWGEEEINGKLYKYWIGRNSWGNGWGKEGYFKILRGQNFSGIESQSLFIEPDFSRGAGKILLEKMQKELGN
In the case of `CCOC(=O)c1c(C)oc2nc(C)nc(NC3CCN(C(=O)OCC)CC3)c12`, the “% Inhibition @ 10 uM” value came out at 3.11%. On to `CNC(=O)CCCc1nc(-c2ccc(C)cc2)no1`, for which the “% Inhibition @ 10 uM” value stood at 3.81%. To `COc1ccc(OC)c(NC(=O)c2ccc(OC)c(OC)c2)c1` belongs 12.2%; to `CN1C(=O)[C@@H]2[C@H](C1=O)[C@H](C(=O)c1ccc(Cl)cc1)N1C=Cc3ccccc3[C@@H]21`, -1.61%; to `O=S(=O)(N1CCCCC1)N1CCN(c2cc(Cl)ccc2Cl)CC1`, -5.13%.

With `COc1cc(C(=O)N(Cc2ccc(C)cc2)Cc2ccco2)cc(OC)c1OC`, the “% Inhibition @ 10 uM” value was -0.45%. For the molecule `COc1ccccc1C(=O)N1CCN(Cc2cc(OC)c(OC)c(OC)c2)CC1`, the “% Inhibition @ 10 uM” value is on record as -0.0619%.

Turning to `CCOc1ccc(-c2oc3ccccc3c(=O)c2O)cc1`, the “% Inhibition @ 10 uM” value was found to be 3.73%.

Regarding `Cc1ccc(C2=NS(=O)(=O)N(C)C(C(=O)NCc3ccco3)=C2)cc1`, the “% Inhibition @ 10 uM” value was -3.07%. Take `CSc1ccc(CN2CCc3c([nH]c4ccccc34)C2)cc1`: the “% Inhibition @ 10 uM” value worked out at 0.317%. To `CC(C)OCCCNC(=O)CN1Cc2ccccc2C1=O` belongs 0.527%; to `CNC(=O)C1CCN(c2nnc(-n3c(C)ccc3C)s2)CC1`, 2.76%; to `COc1ccc(CN2C(=O)c3ccccc3C2C(=O)NCc2cccnc2)c(OC)c1` (stereo not drawn), -0.668%.

On to `Cc1ccc(C2=NS(=O)(=O)N(C)C(C(=O)N3CCCCC3)=C2)cc1`, for which the “% Inhibition @ 10 uM” value worked out at 5.48%.

For `COc1cccc(NC(=O)C2CC(=O)N(c3ccccc3)C2)c1` (stereo not drawn), the “% Inhibition @ 10 uM” value was -2.74%. To `Cc1nn(CCCC(=O)N2CCCC2)c(=O)c2nn(-c3ccccc3)c(C)c12` belongs -2.49%; to `COc1ccc(-c2noc(CCCC(=O)NCc3ccco3)n2)cc1`, -6.64%; to `COc1ccccc1C1CC(c2ccccc2)=NN1c1ccc(Br)cc1` (stereo not drawn), -0.0267%.

Regarding `CCCC1=C(C(=O)OCC)C(c2cccnc2)C(C#N)=C(N)O1` (stereo not drawn), the “% Inhibition @ 10 uM” value is 4.66%. Turning to `CSc1[nH]nc2ncnc(O)c12`, the “% Inhibition @ 10 uM” value is recorded as -3.85%. In the case of `COc1cc(C2C3CN(C)CC=C3C(C#N)=C(N)C2(C#N)C#N)cc(OC)c1OC` (stereo not drawn), the “% Inhibition @ 10 uM” value is on record as 0.569%. To `COc1cc(/C=C2/C(=N)N3C(=NC2=O)SN=C3S(C)(=O)=O)ccc1OCc1cccc(C)c1` belongs 0.163%; to `Ic1ccc(OCCCCCN2CCCCC2)cc1`, 3%.

Take `O=C(Cn1c(-c2cncs2)nc2ccccc21)Nc1ccc(Cl)cc1`: the “% Inhibition @ 10 uM” value is -5.57%. Consider `COc1ccc(/C=C/C(=O)NC(C)Cc2ccccc2)cc1` (stereo not drawn), for which the “% Inhibition @ 10 uM” value amounted to 1.9%. With `COc1cc2c(cc1NC(=O)c1c(C)nn(C(F)F)c1C)oc1ccccc12`, the “% Inhibition @ 10 uM” value was -2.32%. With `O=C(NCC1CCCO1)C1Sc2nnc(-c3ccccc3)n2NC1c1ccc(Cl)cc1` (stereo not drawn) the figure was 0.0289%; with `CCc1sc(C2C(C#N)=C(N)OC3=C2C(=O)CCC3)cc1COc1ccccc1Cl` (stereo not drawn), 1.43%; with `Nc1nc(N)c2cc(OCc3ccc(Cl)c(Cl)c3)ccc2n1`, -4.39%. For `CCOCCCNC(=O)c1ccc(CSc2nc3cccnc3n2Cc2ccc(OC)cc2)cc1`, the “% Inhibition @ 10 uM” value was 9.02%.

As for `CCSc1nc(O)c2c(n1)N=C1CCCC(O)=C1C2c1ccc(Br)cc1` (stereo not drawn), the “% Inhibition @ 10 uM” value was determined as 2.1%. With `Cc1ccccc1NC(=O)CSc1nc2cccnc2[nH]1` the figure was -3.39%; with `CCOc1cccc2c1OC(c1ccc(C(=O)OC)cc1)N1N=C(c3cccc(OC)c3)CC21` (stereo not drawn), 0.238%. To `COCCN1C(=O)c2oc3cc(C)cc(C)c3c(=O)c2C1c1ccc(O)c(OC)c1` (stereo not drawn) belongs 3.27%.

With `O=c1c2cn[nH]c2[nH]c(=S)n1-c1ccc(F)c(Cl)c1`, the “% Inhibition @ 10 uM” value came out at 33%.

For `CCOc1ccc(N(C(C)C(=O)N2CCCCCC2)S(C)(=O)=O)cc1` (stereo not drawn), the “% Inhibition @ 10 uM” value was 2.44%. In the case of `COCCCNC(=O)CCCC(=O)n1nc(C)c2ccccc21`, the “% Inhibition @ 10 uM” value was determined as 5.39%. To `COc1ccc(C(=O)O)cc1COc1cccc(Cl)c1Cl` belongs 12.6%; to `CCOc1ccccc1N1CCN(Cc2ccc3c(c2)c2ccccc2n3CC)CC1`, -4.5%. To `COc1cc(OC)c(OC)cc1CN1CCN(Cc2ccc(F)cc2)CC1` belongs 4.96%; to `O=C(O)C1C2CCCCC2=C2CCCCC2C1C(=O)c1ccccc1` (stereo not drawn), 0.937%. `Cc1ccnc(NC(=O)c2ccccc2F)c1`: the “% Inhibition @ 10 uM” value is given as 5.44%. To `CC(C)(C)c1ccc(C(=O)NCCc2cccs2)cc1` belongs 3.66%; to `FC(F)(F)c1cc(-c2cccs2)nc2ncnn12`, 1.19%. To `CCN1CCCC1CNC(=O)Cn1ncc2c1-c1ccccc1OC2` (stereo not drawn) belongs 0.0579%. `COc1ccc(-c2cn3c(n2)sc2cc(C(=O)N4CCN(Cc5ccccc5)CC4)ccc23)cc1`: the “% Inhibition @ 10 uM” value is reported as 16.6%. With `COc1ccc(CNC(=O)/C(C#N)=C/c2cc(Br)ccc2O)cc1` the figure was 1.42%. To `O=C(Nc1ccc(S(=O)(=O)N2CCCCC2)cc1)C(c1ccccc1)c1ccccc1` belongs -3.95%. For `O=C(NCC(c1cccnc1)N1CCN(Cc2ccccc2)CC1)c1ccccc1` (stereo not drawn), the “% Inhibition @ 10 uM” value was -7.29%. To `COc1ccccc1N1CCN(C(=O)CN(c2cccc(F)c2)S(C)(=O)=O)CC1` belongs -10.8%; to `CCOC(=O)C1=C(CN2CCC(c3ccccc3)C2)NC(=O)NC1c1cccs1` (stereo not drawn), 3.22%; to `Nc1cc(-c2ccccc2)nn1S(=O)(=O)c1c(F)c(F)c(F)c(F)c1F`, -2.88%. To `Cc1ccc(Cl)cc1NC(=O)COc1ccccc1` belongs -3.03%; to `CC(C)c1ccc(NC(=O)c2ccc(Cl)cc2)cc1`, -0.192%. To `CN(CCCNC(=O)CCc1cn(C)c2ccccc12)C1CCCCC1` belongs 4.06%.

Take `CCOc1ccc(N2C(=O)c3ccccc3NC2c2ccc(Br)cc2)cc1` (stereo not drawn): the “% Inhibition @ 10 uM” value is given as -5.11%. To `COc1ccc(C(C)=O)cc1N1C(=O)C2C3C=CC(CC3)C2C1=O` (stereo not drawn) belongs 2.17%; to `CC(C)C[C@H](Nc1ccc([N+](=O)[O-])cc1)C(=O)NCC#N`, -1.41%.

For `Cc1ccc(C(O)c2ccccc2)s1` (stereo not drawn), the “% Inhibition @ 10 uM” value turned out to be 3.2%. To `O=C1NC(c2cccc(Br)c2)Nc2ccccc21` (stereo not drawn) belongs 4.09%. Consider `CC(=O)c1cc2c(cc1NC(=O)c1ccc(Br)cc1)OCO2`, for which the “% Inhibition @ 10 uM” value is recorded as -1.98%. Take `COc1cccc2c1Oc1nc(-c3ccc(O)cc3)nc(O)c1C2`: the “% Inhibition @ 10 uM” value amounted to 2.32%.

On to `COc1ccc(/C=C/C(=O)NC2CCCCC2)cc1`, for which the “% Inhibition @ 10 uM” value was -2.27%. `CC1=C(C#N)C(C(F)(F)F)(C(F)(F)F)NC(=O)N1`: the “% Inhibition @ 10 uM” value came out at 3.36%.

On to `Cc1c(C(=O)NCCCC(=O)O)c(-c2ccccc2)nn1-c1ccccc1`, for which the “% Inhibition @ 10 uM” value is -4.61%. With `CC1=C(C(=O)Nc2ccccn2)C(c2cn(C)nc2C)C2=C(O)CCCC2=N1` (stereo not drawn) the figure was 1.43%. To `NC(=O)C1CCN(CCCc2ccccc2)CC1` belongs 0.265%; to `O=C(NC1CCCCCC1)c1ccc([N+](=O)[O-])o1`, 2.99%; to `CCC(CC)C(=O)Nc1cc(OC)ccc1OC`, 5.25%. To `CCOc1cc2c(cc1OCC)C(CN1C(=O)c3ccccc3C1=O)=NCC2` belongs -6.35%; to `O=C(NCC1COc2ccccc2O1)c1ccc(F)cc1` (stereo not drawn), 1.81%. With `CNCC(O)CN1CCN(c2ccccc2OC)CC1` (stereo not drawn), the “% Inhibition @ 10 uM” value turned out to be 5.37%. As to `CCOC(=O)c1sc2nc3n(c(=O)c2c1C)CCC(C)CC3` (stereo not drawn), the “% Inhibition @ 10 uM” value was 1.48%. `CCOC(=O)/C=C(/C)N1N=C(/C=C/c2ccccc2)CC1c1ccccc1` (stereo not drawn): the “% Inhibition @ 10 uM” value is given as -1.45%. Take `COc1ccc2[nH]c3c(=O)n(CCCC(=O)NC4CCCc5ccccc54)c(=S)[nH]c3c2c1` (stereo not drawn): the “% Inhibition @ 10 uM” value is -0.495%. With `CC1=C(C(=O)Nc2ccc(Br)cc2)C(c2cccc3ccccc23)NC(=O)N1` (stereo not drawn) the figure was -10.9%; with `Nc1c(-c2c[nH]c3ccccc23)c(-c2ccccc2)nn1-c1ccccc1`, 9.1%. On to `CC1=CC2=NC(=O)/C(=C\c3ccc(Br)o3)C(=N)N2O1`, for which the “% Inhibition @ 10 uM” value is given as -5.34%. To `CC(C)(C)C1CCC(OC(=O)CCC(=O)Nc2ccc([N+](=O)[O-])cc2)CC1` (stereo not drawn) belongs 1.54%; to `CCOC(=O)N1CCC(NC(=O)c2cccc3c2C(=O)N(CCOC)C3)CC1`, 2.9%.

Turning to `FC(F)(F)c1cccc(OCCNc2nc3ccccc3c3nc(-c4cccnc4)nn23)c1`, the “% Inhibition @ 10 uM” value turned out to be 5.49%. With `CC(C)CCNC(=O)CN1C(=O)CSc2ncccc21` the figure was -7.93%.

Consider `COc1ccc(C2C(C(C)=O)=C(C)N=c3s/c(=C/c4ccc5c(c4)OCO5)c(=O)n32)cc1` (stereo not drawn), for which the “% Inhibition @ 10 uM” value is given as 4.44%. As for `CCC(C)c1ccc(NS(=O)(=O)Cc2ccccc2)cc1` (stereo not drawn), the “% Inhibition @ 10 uM” value was -3.38%.

In the case of `Cc1nc(=O)c(-c2ccccc2)c(C)n1CCO`, the “% Inhibition @ 10 uM” value was -3.04%. As to `O=C(C1=C(O)C(=O)N(Cc2cccnc2)C1c1ccc(Cl)cc1)c1ccc(F)cc1` (stereo not drawn), the “% Inhibition @ 10 uM” value is recorded as -2.32%. To `CC(C)(C)c1cc(C(=O)CCCC(=O)O)c(C(C)(C)C)s1` belongs -4.73%; to `COCC(C)NC1C2CC3CC(C2)CC1C3` (stereo not drawn), 0.162%; to `COc1ccc(CCN(C(C)=O)C2CC(=O)N(c3ccc(Cl)cc3)C2=O)cc1` (stereo not drawn), -3.05%. With `COc1ccc(C(=O)Nc2ccc(Br)cc2)c(OC)c1` the figure was -0.116%. Turning to `Cc1cc(C)c(CN2CCCN(Cc3ccc(Cl)cc3)S2(=O)=O)c(C)c1`, the “% Inhibition @ 10 uM” value is recorded as -7.08%. As for `Cn1c(=O)[nH]c2sc3c(c2c1=O)CC(C)(C)OC3`, the “% Inhibition @ 10 uM” value is -1.66%. Regarding `CC(C)c1ccc(NC(=O)c2cnccn2)cc1`, the “% Inhibition @ 10 uM” value was determined as 1.8%. As to `CC(C)Cc1ccc(C(C)C(=O)Nc2cccnc2)cc1` (stereo not drawn), the “% Inhibition @ 10 uM” value is listed as -1.63%. With `CC(C)C[C@H](NC(=O)c1ccccc1F)C(=O)NCC#N` the figure was -1.41%; with `CCCCn1c(O)cc(=O)nc1SCC(=O)N1CCCCC1`, 0.658%; with `NC(=S)N/N=C/C=C/c1cccs1`, 21.9%. With `O=C(NCc1ccccc1)N1CCN(c2nc3ccccc3s2)CC1`, the “% Inhibition @ 10 uM” value is reported as -2.28%. To `O=C(COc1ccccc1)N1N=C(c2ccncc2)CC1(O)C(F)(F)F` (stereo not drawn) belongs 0.859%; to `O=C1C(Cl)=C(N2CCOCC2)C(=O)N1c1cc(Cl)ccc1Cl`, 3.46%; to `O=C(O)C1=C2C(=O)Nc3cccc(c32)C2(C1)C(=O)Nc1ccccc12` (stereo not drawn), -4.06%. With `CC1=C(C(=O)OCCc2ccccc2)C(c2cccc(C(F)(F)F)c2)NC(=O)N1C` (stereo not drawn) the figure was -0.467%.
